Test results from PubChem BioAssay AID588453 (National Center for Advancing Translational Sciences (NCATS), 2011).
About 4,000 (1%) of roughly 390,000 compounds were called active. The shares of active, inactive and inconclusive entries below differ from those in the screen. Calls come from the whole dose curve; as a rule, active = well fitted inhibition curve with a large enough effect; inconclusive = small, poorly fitted or top-dose-only effect; inactive = no such curve, though single readings can be large or run the other way. Potencies of inconclusive entries are doubtful fits and often do not repeat.
Note: nearly all actives have a fitted effect of over 65% in size.
Potency is the fitted concentration of half-maximal effect; tags give direction and shape of the fitted curve.

What follows are compounds tested against Thioredoxin reductase 1, cytoplasmic (Rattus norvegicus) (UniProt O89049) (assay: qHTS Assay for Inhibitors of Mammalian Selenoprotein Thioredoxin Reductase 1 (TrxR1): qHTS). Details: recombinant rTrxR1, NADPH fluorescence consumption, selenite substrate; series mostly up to 114 µM.
UniProt O89049, sequence (O89049 whole entry, looked up): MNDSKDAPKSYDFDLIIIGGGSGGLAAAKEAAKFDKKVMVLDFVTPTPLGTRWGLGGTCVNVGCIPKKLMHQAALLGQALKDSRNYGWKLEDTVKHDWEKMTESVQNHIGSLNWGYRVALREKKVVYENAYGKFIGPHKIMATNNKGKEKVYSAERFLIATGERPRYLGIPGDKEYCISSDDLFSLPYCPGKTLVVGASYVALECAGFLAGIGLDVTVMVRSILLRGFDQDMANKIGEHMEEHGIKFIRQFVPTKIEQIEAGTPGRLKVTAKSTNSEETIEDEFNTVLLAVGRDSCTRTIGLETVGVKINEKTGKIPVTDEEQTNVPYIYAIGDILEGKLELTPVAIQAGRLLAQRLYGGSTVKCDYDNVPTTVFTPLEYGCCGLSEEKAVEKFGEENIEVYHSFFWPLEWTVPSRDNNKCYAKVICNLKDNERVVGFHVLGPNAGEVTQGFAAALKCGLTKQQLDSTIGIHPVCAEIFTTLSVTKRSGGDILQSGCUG
Outline: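 Rat TrxR1 (90 nM in the dispensed reagent) was pre-reduced with 400 uM NADPH for 5 min at room temperature, then incubated with compound for 15 min. After 400 uM selenite was added, NADPH fluorescence (Ex 340/Em 450 nm) was followed for 8 min.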
For `Cc1ccc(Nc2nc(CSc3nnc(-c4ccncc4)n3C)cs2)cc1`, the Potency was “inactive”.
With `Cc1ccc(S(=O)(=O)c2nc(S(=O)(=O)c3ccc(C)cc3)c(N3CCN(CCO)CC3)s2)cc1` the Potency was inconclusive: 79.4 µM [inhibitor, single point].
For `S=c1nc(C2CCCCC2)[nH][nH]1`, the Potency was inconclusive: 0.447 µM [inhibitor, full curve].
With `CSc1nc(-c2ccco2)nn1C(=O)c1ccccc1Cl` the Potency was inconclusive: 17.8 µM [inhibitor, full curve].
With `CC(C)(C)NC(=O)C(c1ccc(O)cc1)N(Cc1ccco1)C(=O)CCC(=O)Nc1ccccn1` (stereo not given) the Potency was “inactive”.
In the case of `OCCC1CN(Cc2c(O)ccc3ccccc23)CCN1CCc1ccccc1` (stereo not given), the Potency is reported as inconclusive: 39.8 µM [inhibitor, partial curve].
With `CN(Cc1nccs1)C(=O)CC1C(=O)NCCN1Cc1ccc(-c2ccccc2)cc1` (stereo not given) the Potency was inconclusive: 44.7 µM [inhibitor, partial curve].
For `COc1ccc(Nc2nnc(-c3ccc(O)cc3)c3ccccc23)cc1`, the Potency was inconclusive: 12.6 µM [inhibitor, partial curve, poor fit].
With `O=c1c([N+](=O)[O-])cccn1Cc1ccccc1Cl` the Potency was inconclusive: 89.1 µM [inhibitor, partial curve, poor fit].
For `CN1CCN(/[N+]([O-])=N/Oc2ccc([N+](=O)[O-])cc2[N+](=O)[O-])CC1`, the Potency was inconclusive: 22.4 µM [inhibitor, full curve].
In the case of `O=C(CN1CCC(C(=O)c2ccc3c(c2)OCCO3)CC1)NC1CCCC1`, the Potency is reported as inconclusive: 70.8 µM [inhibitor, single point].
For `CCC(C)Sc1cccc(-c2nc3cc(C)ccn3c2NC2CCCCC2)c1` (stereo not given), the Potency was “inactive”.
For `Cc1cccc(C2C=C(c3ccc(C)c(C)c3)Nc3nnnn32)c1` (stereo not given), the Potency was “inactive”.
In the case of `COc1cccc(CN2CCNC(=O)C2CC(=O)N(C)C2CCCCC2)c1` (stereo not given), the Potency is reported as inconclusive: 70.8 µM [inhibitor, partial curve].
In the case of `Cc1ccc(C(=O)n2ncn(C)c2=S)cc1`, the Potency is reported as inconclusive: 1.41 µM [inhibitor, full curve, poor fit].
For `O=[N+]([O-])c1ccc(S(=O)(=O)N2CCN(Cc3c[nH]c4ccccc34)CC2)cc1`, the Potency was inconclusive: 20 µM [inhibitor, partial curve, poor fit].
In the case of `Cc1ccc(-c2cnn(-c3ccccc3)c2N)cc1`, the Potency is reported as inconclusive: 100 µM [inhibitor, partial curve, poor fit].
In the case of `CCOc1ccc(NC(=O)CN(C)C(=O)C2CC(=O)N(Cc3ccco3)C2)cc1OCC` (stereo not given), the Potency is reported as inconclusive: 7.94 µM [inhibitor, full curve].
In the case of `Cc1ccccc1-n1c(O)cc(=O)[nH]c1=S`, the Potency is reported as inconclusive: 7.94 µM [inhibitor, full curve].
With `Cc1[nH]c2ccc3c(ncn3CCC#N)c2c1C` the Potency was “inactive”.
`CCOC(=O)N1CCN(C2=C(NS(=O)(=O)c3ccc(NC(C)=O)cc3)C(=O)c3ccccc3C2=O)CC1` was tested, and the Potency was inconclusive: 20 µM [inhibitor, partial curve, poor fit].
`COc1ccc(C(=O)NC(=S)NNC(=O)Cc2cccs2)cc1` was tested, and the Potency was inconclusive: 50.1 µM [inhibitor, partial curve].
In the case of `CN(C)C=Nc1nonc1-c1ccccc1`, the Potency is reported as “inactive”.
In the case of `O=C1/C(=C/c2ccncc2)CCc2ccccc21`, the Potency is reported as inconclusive: 7.08 µM [inhibitor, full curve].
With `Cc1ccc(C(=O)N2CCc3cc(CNS(=O)(=O)c4cccs4)ccc32)cc1` the Potency was “inactive”.
In the case of `O=c1cc(-c2cccc(Br)c2)nc(-c2ccccc2F)o1`, the Potency is reported as inconclusive: 89.1 µM [inhibitor, single point].
`CCN(CC)CCCNc1oc(-c2ccc(OC)c(OC)c2)nc1C#N` was tested, and the Potency was inconclusive: 70.8 µM [inhibitor, single point].
`O=C(O)c1cc2nccc(-c3ccco3)n2n1` was tested, and the Potency was inconclusive: 44.7 µM [inhibitor, partial curve, poor fit].
In the case of `O=C(NCC1CCCO1)Nc1cccc(Cl)c1` (stereo not given), the Potency is reported as “inactive”.
In the case of `FC(F)(F)c1cc(-c2ccccc2)nc(N2CCCCCC2)n1`, the Potency is reported as “inactive”.
With `O=C(NC(=S)Nc1cccc([N+](=O)[O-])c1)C1CCCCC1` the Potency was “inactive”.
`S=C(Nc1ccc(Cl)cc1Cl)Nc1ccccc1Oc1ccccc1` was tested, and the Potency was “inactive”.
In the case of `Cc1c(CC(=O)NCC(C)C)c(=O)oc2cc3c(cc12)CCC(C)(C)O3`, the Potency is reported as inconclusive: 28.2 µM [inhibitor, full curve].
`O=C(N/N=C/c1cc(Cl)ccc1O)c1cccnc1` was tested, and the Potency was “inactive”.
For `COC(=O)c1c(C#N)c(N)nc2c1CCC2`, the Potency was inconclusive: 100 µM [inhibitor, single point].
`O=C(NCCN1CCOCC1)c1noc2c1CCc1ccccc1-2` was tested, and the Potency was inconclusive: 20 µM [inhibitor, full curve, poor fit].
For `CCCc1[nH]nc2c1C(/C(C)=C/c1ccccc1)C(C#N)=C(N)O2` (stereo not given), the Potency was inconclusive: 89.1 µM [inhibitor, single point].
In the case of `CC(C)CN(CC(C)C)c1ccc(/C=C/c2nc3ccccc3s2)cc1`, the Potency is reported as “inactive”.
For `CCC1(C)CC2(CCCN(CCC(=O)c3ccccc3)C2)CCO1` (stereo not given), the Potency was inconclusive: 0.501 µM [inhibitor, partial curve, poor fit].
`CC1CCCCN1CCCNC(=O)c1ccc2c(=O)n(CCc3ccccc3)c(=O)[nH]c2c1` (stereo not given) was tested, and the Potency was inconclusive: 89.1 µM [inhibitor, single point].
With `CN(C)c1ccc(N=Nc2ccccc2C(=O)OCC(=O)N2CCCC2)cc1` the Potency was inconclusive: 70.8 µM [inhibitor, partial curve, poor fit].
`CC/C(=N\NC(=O)CNC(=O)/C=C/c1ccco1)c1ccccc1` was tested, and the Potency was inconclusive: 50.1 µM [inhibitor, partial curve].
`CCCCN(C(=O)Cn1ncc(Cl)c(Cl)c1=O)c1c(N)n(CC(C)C)c(=O)[nH]c1=O` was tested, and the Potency was active: 56.2 µM.
In the case of `O=C(c1cccnc1)N(c1cc2sc(=O)oc2c2ccccc12)S(=O)(=O)c1ccccc1`, the Potency is reported as inconclusive: 31.6 µM [inhibitor, partial curve].
For `COc1cc2c(cc1OC)C(COc1ccc(F)cc1)N(C(=O)c1ccco1)CC2` (stereo not given), the Potency was inconclusive: 39.8 µM [inhibitor, partial curve, poor fit].
